From the supplement of paper PMC12217912
Some of the results follow. Sequences were assembled here from the parent chain. Inactive controls read about 0.05.

B1: TEV protease; numbered along this chain (parent)
chain: MGESLFKGPRDYNPISSSICHLTNESDGHTTSLYGIGFGPFIITNKHLFRRNNGTLVVQSLHGVFKVKDTTTLQQHLVDGRDMIIIRMPKDFPPFPQKLKFREPQREERICLVTTNFQTKSMSSMVSDTSCTFPSGDGIFWKHWIQTKDGQCGSPLVSTRDGFIVGIHSASNFTNTNNYFTSVPKNFMELLTNQEAQQWVSGWRLNADSVLWGGHKVFMVKPEEPFQPVKEATQL

Variants of: B1
Assay: raw area under fraction-flipped curve 0-4 h after induction (AUC4h, not background-subtracted), DNA-recorder readout of cleavage of the substrate (dimensionless); higher = more cleavage of the substrate by the protease variant
Details: temperature: 34 °C; time window: 0-4 h after rhamnose induction
Description: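 In vivo DNA recorder in E. coli TOP10(DE3) ΔrhaA at 34 °C. Each TEVp single-site mutant (parent TEVp 0) is paired with a single-site variant of the 7-mer TEVs (canonical ENLYFQ|S). The substrate sits between flexible linkers in a Bxb1-sfGFP-TEVs-SsrA fusion, so cleavage stabilises Bxb1 and speeds flipping of a recombination array, read by NGS. The value is the raw area under the fraction-flipped curve over 0-4 h after rhamnose induction (AUC4h), with ≥20 reads per time point. It is not background-subtracted; inactive controls average about 0.047.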
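Further: Bxb1 expression induced with 0.2% (w/v) L-rhamnose at OD600 near 0.5, cultures sampled hourly, flipped fraction per protease–substrate barcode pair counted by paired-end Illumina sequencing.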

Row | Variant | area with substrate EALYFQS | area with substrate ECLYFQS | area with substrate EDLYFQS | area with substrate EFLYFQS | area with substrate EGLYFQS | area with substrate EILYFQS | area with substrate ELLYFQS | area with substrate EMLYFQS | area with substrate EPLYFQS | area with substrate EQLYFQS | area with substrate ERLYFQS | area with substrate ESLYFQS | area with substrate EVLYFQS | area with substrate EWLYFQS | area with substrate EELYFQS | area with substrate EKLYFQS | area with substrate ETLYFQS | area with substrate EYLYFQS | area with substrate EHLYFQS
1 | V126Y | 0.114 | 0.105 | 0.11 | 0.0869 | 0.112 | 0.0866 | 0.0887 | 0.124 | 0.101 | 0.128 | 0.11 | 0.0984 | 0.0905 | 0.0802 | – | – | – | – | –
2 | P155D | 0.0508 | 0.0469 | 0.0457 | – | 0.0455 | 0.0414 | – | 0.0371 | – | – | 0.0589 | 0.0561 | 0.0488 | 0.0542 | 0.0422 | 0.0392 | 0.0376 | 0.0539 | –
3 | I164D | 0.0508 | 0.0571 | 0.0688 | – | 0.0646 | 0.0512 | 0.0715 | 0.065 | 0.0676 | – | 0.0584 | 0.05 | 0.0632 | 0.0524 | 0.0565 | 0.0607 | – | – | 0.065
4 | V78P | 0.0709 | 0.0786 | 0.0843 | 0.0821 | 0.0602 | 0.0596 | 0.0695 | 0.0805 | 0.0858 | 0.0912 | 0.0848 | 0.0704 | 0.0678 | 0.0742 | – | 0.0804 | 0.0619 | 0.0764 | 0.0959
5 | V78W | 0.0837 | 0.0679 | 0.115 | 0.0684 | – | 0.0605 | 0.0557 | 0.0703 | 0.0673 | 0.0692 | 0.0713 | 0.0617 | 0.0554 | 0.0732 | 0.107 | 0.0746 | – | 0.0475 | –
6 | S26H | 0.0692 | 0.0792 | 0.0796 | – | – | 0.0968 | – | 0.0742 | – | 0.113 | – | 0.0594 | – | 0.0569 | 0.0778 | 0.122 | 0.108 | 0.0863 | –
7 | H62A | 0.1 | 0.0867 | 0.118 | 0.105 | – | – | – | 0.0989 | – | 0.157 | 0.0848 | 0.0891 | 0.0919 | 0.0965 | – | – | 0.111 | 0.0858 | 0.104
8 | M83D | 0.0468 | 0.0578 | 0.065 | – | 0.0756 | 0.0242 | – | 0.0652 | 0.0565 | 0.0546 | 0.0607 | 0.0488 | – | 0.0568 | 0.0567 | 0.0501 | 0.0348 | 0.0465 | 0.0379
9 | K148R | 0.13 | 0.0997 | 0.126 | 0.115 | 0.125 | 0.104 | 0.0812 | 0.109 | 0.115 | – | – | 0.111 | – | 0.101 | 0.156 | – | – | 0.107 | –
10 | Q105R | 0.114 | 0.141 | 0.102 | – | – | 0.0913 | – | 0.113 | – | 0.114 | 0.128 | 0.1 | 0.0802 | 0.104 | 0.114 | 0.142 | 0.118 | 0.174 | 0.124
11 | V113G | 0.076 | 0.0842 | 0.0819 | 0.0492 | 0.0288 | 0.0439 | – | – | 0.0655 | 0.086 | 0.104 | – | – | – | 0.0837 | 0.0834 | – | – | –
12 | G37W | 0.0825 | 0.0787 | 0.0697 | – | 0.0801 | – | – | – | – | 0.0959 | 0.0701 | 0.0794 | 0.0769 | 0.0625 | 0.0633 | 0.0854 | 0.0869 | 0.0667 | 0.0814
13 | T23C | 0.114 | 0.0979 | 0.116 | – | 0.0732 | 0.0823 | 0.0853 | 0.0842 | 0.113 | 0.111 | – | 0.105 | 0.0882 | – | 0.12 | 0.0813 | – | 0.0713 | –
14 | I110T | 0.0844 | 0.0351 | 0.095 | 0.104 | 0.0646 | 0.0657 | 0.0621 | 0.0774 | 0.102 | – | 0.0821 | 0.0708 | 0.066 | – | 0.0935 | – | 0.0884 | 0.0685 | 0.0718
15 | F133W | 0.118 | 0.103 | 0.143 | 0.0996 | – | 0.0841 | 0.0719 | 0.11 | 0.123 | 0.121 | 0.0992 | 0.096 | 0.114 | 0.0969 | – | 0.123 | 0.109 | 0.115 | –
16 | F133K | 0.108 | 0.078 | 0.117 | 0.104 | 0.0045 | 0.0993 | – | 0.128 | – | 0.119 | 0.117 | 0.12 | 0.0799 | 0.133 | 0.128 | 0.11 | – | – | –
17 | S154W | 0.0821 | 0.0774 | 0.0867 | – | 0.061 | 0.0691 | – | 0.0504 | 0.0843 | – | 0.0817 | 0.0648 | 0.0672 | – | 0.076 | – | – | 0.0848 | –
18 | G54V | 0.0742 | 0.0666 | 0.0656 | – | 0.0676 | 0.0639 | 0.063 | 0.102 | 0.062 | 0.0705 | – | 0.0836 | 0.0627 | 0.0499 | 0.132 | 0.053 | 0.0661 | 0.0739 | –
19 | K98C | 0.135 | 0.0761 | 0.109 | 0.106 | 0.0928 | 0.082 | 0.0871 | 0.119 | 0.113 | 0.107 | 0.0903 | 0.109 | 0.0808 | – | 0.111 | 0.0995 | – | 0.101 | –
20 | S201R | 0.103 | 0.105 | 0.129 | 0.096 | 0.0872 | 0.0956 | 0.0848 | – | – | 0.114 | 0.114 | 0.111 | 0.0937 | 0.0965 | – | 0.116 | – | 0.079 | 0.0938
21 | R109W | 0.109 | 0.0911 | 0.113 | 0.0921 | – | 0.0967 | 0.087 | 0.072 | 0.112 | 0.11 | 0.0786 | – | 0.0551 | 0.0755 | 0.135 | – | – | – | –
22 | W141P | 0.0497 | 0.0557 | 0.0727 | 0.0651 | 0.0585 | 0.049 | 0.0571 | – | 0.0546 | 0.049 | 0.0382 | 0.0683 | 0.0599 | 0.0426 | – | 0.063 | – | 0.0352 | –
23 | E25R | 0.123 | 0.101 | 0.153 | – | 0.0912 | 0.0987 | 0.0986 | 0.0359 | 0.0853 | 0.124 | 0.1 | 0.12 | 0.147 | 0.0924 | 0.128 | 0.119 | 0.115 | – | 0.118
24 | H21Q | 0.108 | 0.102 | 0.124 | 0.0471 | 0.0869 | 0.11 | – | 0.13 | 0.112 | 0.147 | 0.107 | 0.114 | – | 0.0843 | 0.122 | 0.116 | – | – | 0.11
